Results published in a collection of fitness landscapes (doi:10.1016/j.celrep.2020.107928).
Over roughly 81,000 sequences, “one-hybrid fitness for binding parS DNA” has its median near -0.17; the highest 2% begin near 0.51. The list shows a part of the results.

B1: Caulobacter ParB omega fusion; a variant is named by its letters at X, in order, B8GW30 (parent)
chain: MESVVVGEPGMSEGRRGLGRGLSALLGEVDAAPAQAPGEQLGGSREAPIEILQRNPDQPRRTFREEDLEDLSNSIREKGVLQPILVRPSPDTAGEYQIVAGERAWRAAQRAGLKTVPIMVRELDDLAVLEIGIIENVQRADLNVLEEALSYKVLMEKFERTQENIAQTIGKSXSHVANXMRLLXLPDEVQSYLVSGELTAXHARAIAAAADPVALAKQIIEGGLSVRETEALARKAPNLSAGKSKGGRPPRVKDTDTQALESDLSSVLGLDVSIDHRGSTGTLTITYATLEQLDDLCNRLTRGI

Variants of: B1
Assay: one-hybrid fitness for binding parS DNA (scaled: cognate 1, non-cognate 0); higher = stronger binding
Details: with parS DNA site
Method in brief: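 Fitness is the rescaled log change in variant-to-wild-type read ratio, measured by Illumina sequencing of plasmids before and after bacterial one-hybrid selection. The scale puts cognate at 1 and non-cognate at 0. Selection of Caulobacter ParB libraries, four specificity codons randomised, took place in E. coli USO with a HIS3 reporter, site 19 bp from the promoter, over 48 hours at 37°C on M9-minus-histidine with 0.1 mM IPTG and 5 mM 3-AT.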

TIIG and SFKQ cannot be ordered by “one-hybrid fitness for binding parS DNA” value: at most 0.2 for the first, at most 0.2 for the second.

CAQG and GNCY cannot be ordered by “one-hybrid fitness for binding parS DNA” value: at most 0.2 for the first, at most 0.2 for the second.

MKAT and MSTR cannot be ordered by “one-hybrid fitness for binding parS DNA” value: at most 0.2 for the first, at most 0.2 for the second.

DPLS and ESQT cannot be ordered by “one-hybrid fitness for binding parS DNA” value: at most 0.2 for the first, at most 0.2 for the second.

Going from SHSM to RGDT, the “one-hybrid fitness for binding parS DNA” value rises from at most 0.2 to 0.371.

RLPP and GINS cannot be ordered by “one-hybrid fitness for binding parS DNA” value: at most 0.2 for the first, at most 0.2 for the second.

SALF and HPCS cannot be ordered by “one-hybrid fitness for binding parS DNA” value: at most 0.2 for the first, at most 0.2 for the second.

EWPR and NRDH cannot be ordered by “one-hybrid fitness for binding parS DNA” value: at most 0.2 for the first, at most 0.2 for the second.

LLLD and AEGG cannot be ordered by “one-hybrid fitness for binding parS DNA” value: at most 0.2 for the first, at most 0.2 for the second.

PCPL and GCVG cannot be ordered by “one-hybrid fitness for binding parS DNA” value: at most 0.2 for the first, at most 0.2 for the second.

LYHW and NGPQ cannot be ordered by “one-hybrid fitness for binding parS DNA” value: at most 0.2 for the first, at most 0.2 for the second.

VGIC and RRRW cannot be ordered by “one-hybrid fitness for binding parS DNA” value: at most 0.2 for the first, at most 0.2 for the second.

TYPR and DHKA cannot be ordered by “one-hybrid fitness for binding parS DNA” value: at most 0.2 for the first, at most 0.2 for the second.

PLAA and VWSH cannot be ordered by “one-hybrid fitness for binding parS DNA” value: at most 0.2 for the first, at most 0.2 for the second.

LTPA and KREL cannot be ordered by “one-hybrid fitness for binding parS DNA” value: at most 0.2 for the first, at most 0.2 for the second.

ILQT and SLLM cannot be ordered by “one-hybrid fitness for binding parS DNA” value: at most 0.2 for the first, at most 0.2 for the second.

DRTF and VLHW cannot be ordered by “one-hybrid fitness for binding parS DNA” value: at most 0.2 for the first, at most 0.2 for the second.

HYRC and GFCG cannot be ordered by “one-hybrid fitness for binding parS DNA” value: at most 0.2 for the first, at most 0.2 for the second.

DMLT and KGTY cannot be ordered by “one-hybrid fitness for binding parS DNA” value: at most 0.2 for the first, at most 0.2 for the second.

SACC and NVIK cannot be ordered by “one-hybrid fitness for binding parS DNA” value: at most 0.2 for the first, at most 0.2 for the second.

NSHE and WCTC cannot be ordered by “one-hybrid fitness for binding parS DNA” value: at most 0.2 for the first, at most 0.2 for the second.

DAEC and RNPR cannot be ordered by “one-hybrid fitness for binding parS DNA” value: at most 0.2 for the first, at most 0.2 for the second.

CCVT and STKV cannot be ordered by “one-hybrid fitness for binding parS DNA” value: at most 0.2 for the first, at most 0.2 for the second.

KTAC and PHEA cannot be ordered by “one-hybrid fitness for binding parS DNA” value: at most 0.2 for the first, at most 0.2 for the second.

HSSL and SMAE cannot be ordered by “one-hybrid fitness for binding parS DNA” value: at most 0.2 for the first, at most 0.2 for the second.

Compared with DNYL, RACF is higher in “one-hybrid fitness for binding parS DNA” value: at most 0.2 for the first, 0.228 for the second.

MRTA and KVRC cannot be ordered by “one-hybrid fitness for binding parS DNA” value: at most 0.2 for the first, at most 0.2 for the second.

EDAG and WVDT cannot be ordered by “one-hybrid fitness for binding parS DNA” value: at most 0.2 for the first, at most 0.2 for the second.

HDTF and NSNS cannot be ordered by “one-hybrid fitness for binding parS DNA” value: at most 0.2 for the first, at most 0.2 for the second.

LIKQ and TKAT cannot be ordered by “one-hybrid fitness for binding parS DNA” value: at most 0.2 for the first, at most 0.2 for the second.

CCRT and WHNG cannot be ordered by “one-hybrid fitness for binding parS DNA” value: at most 0.2 for the first, at most 0.2 for the second.

DPSR and QCNE cannot be ordered by “one-hybrid fitness for binding parS DNA” value: at most 0.2 for the first, at most 0.2 for the second.

RKPD and GQNC cannot be ordered by “one-hybrid fitness for binding parS DNA” value: at most 0.2 for the first, at most 0.2 for the second.

PENT and HKRE cannot be ordered by “one-hybrid fitness for binding parS DNA” value: at most 0.2 for the first, at most 0.2 for the second.

Going from RTYY to MTPF, the “one-hybrid fitness for binding parS DNA” value falls from 0.49 to at most 0.2.

MCRT and ARTD cannot be ordered by “one-hybrid fitness for binding parS DNA” value: at most 0.2 for the first, at most 0.2 for the second.

QNLV and QWLG cannot be ordered by “one-hybrid fitness for binding parS DNA” value: at most 0.2 for the first, at most 0.2 for the second.

Compared with TIAR, RECG is higher in “one-hybrid fitness for binding parS DNA” value: at most 0.2 for the first, 0.221 for the second.

MCGT and VMVT cannot be ordered by “one-hybrid fitness for binding parS DNA” value: at most 0.2 for the first, at most 0.2 for the second.

RFKK and WWNC cannot be ordered by “one-hybrid fitness for binding parS DNA” value: at most 0.2 for the first, at most 0.2 for the second.

YHPF and NPHC cannot be ordered by “one-hybrid fitness for binding parS DNA” value: at most 0.2 for the first, at most 0.2 for the second.

WHKV and DGQS cannot be ordered by “one-hybrid fitness for binding parS DNA” value: at most 0.2 for the first, at most 0.2 for the second.

GTQK and GSNR cannot be ordered by “one-hybrid fitness for binding parS DNA” value: at most 0.2 for the first, at most 0.2 for the second.

Going from LCIF to RYYA, the “one-hybrid fitness for binding parS DNA” value rises from at most 0.2 to 0.522.

Compared with KKGK, RWQT is higher in “one-hybrid fitness for binding parS DNA” value: at most 0.2 for the first, 0.618 for the second.

Compared with RQES, RLGM is lower in “one-hybrid fitness for binding parS DNA” value: 0.962 for the first, 0.352 for the second.

HMGI and VIYC cannot be ordered by “one-hybrid fitness for binding parS DNA” value: at most 0.2 for the first, at most 0.2 for the second.

PKQC and KLVK cannot be ordered by “one-hybrid fitness for binding parS DNA” value: at most 0.2 for the first, at most 0.2 for the second.

SRRK and NVLA cannot be ordered by “one-hybrid fitness for binding parS DNA” value: at most 0.2 for the first, at most 0.2 for the second.

GTLE and NLAG cannot be ordered by “one-hybrid fitness for binding parS DNA” value: at most 0.2 for the first, at most 0.2 for the second.

LPSA and QMDD cannot be ordered by “one-hybrid fitness for binding parS DNA” value: at most 0.2 for the first, at most 0.2 for the second.

DRTQ and YKPS cannot be ordered by “one-hybrid fitness for binding parS DNA” value: at most 0.2 for the first, at most 0.2 for the second.

MACK and RLRV cannot be ordered by “one-hybrid fitness for binding parS DNA” value: at most 0.2 for the first, at most 0.2 for the second.

SWEE and PWIM cannot be ordered by “one-hybrid fitness for binding parS DNA” value: at most 0.2 for the first, at most 0.2 for the second.

GAYF and VADV cannot be ordered by “one-hybrid fitness for binding parS DNA” value: at most 0.2 for the first, at most 0.2 for the second.

Going from RENC to RKLF, the “one-hybrid fitness for binding parS DNA” value falls from 0.27 to at most 0.2.

PSYV and HFSG cannot be ordered by “one-hybrid fitness for binding parS DNA” value: at most 0.2 for the first, at most 0.2 for the second.

PEQC and CNGC cannot be ordered by “one-hybrid fitness for binding parS DNA” value: at most 0.2 for the first, at most 0.2 for the second.

QGPT and VYET cannot be ordered by “one-hybrid fitness for binding parS DNA” value: at most 0.2 for the first, at most 0.2 for the second.

First: RSQF
Second: TTQY
The “one-hybrid fitness for binding parS DNA” value of the first is higher: 0.218 for the first, at most 0.2 for the second.

LSRG and QTRN cannot be ordered by “one-hybrid fitness for binding parS DNA” value: at most 0.2 for the first, at most 0.2 for the second.

VLEN and IRRG cannot be ordered by “one-hybrid fitness for binding parS DNA” value: at most 0.2 for the first, at most 0.2 for the second.

CVNG and GYPR cannot be ordered by “one-hybrid fitness for binding parS DNA” value: at most 0.2 for the first, at most 0.2 for the second.

YSQT and GVCG cannot be ordered by “one-hybrid fitness for binding parS DNA” value: at most 0.2 for the first, at most 0.2 for the second.

Compared with TNHE, RGYG is higher in “one-hybrid fitness for binding parS DNA” value: at most 0.2 for the first, 0.576 for the second.

HCHR and SDVA cannot be ordered by “one-hybrid fitness for binding parS DNA” value: at most 0.2 for the first, at most 0.2 for the second.

GKYW and DQIF cannot be ordered by “one-hybrid fitness for binding parS DNA” value: at most 0.2 for the first, at most 0.2 for the second.

QKSR and SIYG cannot be ordered by “one-hybrid fitness for binding parS DNA” value: at most 0.2 for the first, at most 0.2 for the second.

EEPL and NHRV cannot be ordered by “one-hybrid fitness for binding parS DNA” value: at most 0.2 for the first, at most 0.2 for the second.

DSFR and LCCW cannot be ordered by “one-hybrid fitness for binding parS DNA” value: at most 0.2 for the first, at most 0.2 for the second.

RQCD and GQCS cannot be ordered by “one-hybrid fitness for binding parS DNA” value: at most 0.2 for the first, at most 0.2 for the second.

QSMQ and ILWC cannot be ordered by “one-hybrid fitness for binding parS DNA” value: at most 0.2 for the first, at most 0.2 for the second.

First: APQD
Second: RTWT
The “one-hybrid fitness for binding parS DNA” value of the first is lower: at most 0.2 for the first, 0.916 for the second.

WFVG and DPCI cannot be ordered by “one-hybrid fitness for binding parS DNA” value: at most 0.2 for the first, at most 0.2 for the second.

LRCG and TSEG cannot be ordered by “one-hybrid fitness for binding parS DNA” value: at most 0.2 for the first, at most 0.2 for the second.

ITTD and FHYG cannot be ordered by “one-hybrid fitness for binding parS DNA” value: at most 0.2 for the first, at most 0.2 for the second.

In the case of TQDN, the “one-hybrid fitness for binding parS DNA” value is reported as at most 0.2.
